Some of the results follow. At the low end of the ranking, values are background and their order means little.
biological target: T1, GST-Rok-C97-191 (UniProt O34857); assay: protein binding microarray; details: Rok is a gene silencer of Bacillus subtilis; high values mean tight binding; most listed sequences are background and not binding sites; double strand, one strand shown;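 note: rank score from −0.5 (least bound) to 0.5 (best bound)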
T1 sequence: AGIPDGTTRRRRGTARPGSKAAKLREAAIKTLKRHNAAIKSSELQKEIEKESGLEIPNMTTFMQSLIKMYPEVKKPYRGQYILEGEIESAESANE

Sequence | binding signal [E-score]
ACTCACGC | -0.127
CCTACCAG | 0.0329
ATATCTTC | 0.344
TCGCGAGA | 0.0322
AGAAGTAG | 0.185
AGCCCCAT | -0.0793
AATCCCCT | -0.124
AGGAAGAG | -0.07
GAAACGGC | -0.0909
ACAACTCG | 0.00896
ACGAGATC | 0.0809
AGAGGACC | -0.212
CATTCACC | 0.00668
AAACCCTA | 0.0584
TGTTCGAA | 0.0431
AAACAGCG | -0.208
AACTATGA | 0.248
ATACTCAA | 0.0675
CAACTTTC | 0.0951
AAAAGGTT | 0.0591
GCAGACCA | -0.298
ACGTGGAG | -0.0208
TCGTCACA | 0.117
CATACAAG | 0.0681
CCTCAGGA | -0.204

Sequence | binding signal [E-score]
CCTGAATA | 0.196
CGCGTCAC | -0.124
TCCAACCA | -0.00863
GATACGAA | 0.0761
AGTAATCC | 0.0756
AAGAGCTA | 0.215
TCTCTCCA | -0.123
AGTGGAAA | 0.183
CTTCTGCC | -0.142
GATCCTAA | 0.0337
ATAACATG | 0.0615
ATCGCAGA | -0.0401
AAAGAACG | 0.0923
ATGTCCAA | 0.196
CGTATTAA | 0.0605
ACAAGGAG | -0.167
AACTACGA | 0.283
ACATTTTG | 0.0334
GTACCTGA | 0.0665
ATGTCGGC | -0.168
AAGGAGCA | -0.262
GATCACTA | 0.102
CTCCAAAG | -0.218
AAGTGGGG | -0.194
CCTAAGCG | -0.279

Sequence | binding signal [E-score]
AAACGCGG | -0.0305
CGAGAGGC | -0.283
GATAGTCA | 0.000914
GCAGGGAC | -0.31
TGTGTAAA | 0.111
AGGCAGTG | -0.329
CAGCAGTC | -0.00812
CAGAATTA | 0.0677
CTTCGTTC | -0.204
GCGCGAGC | -0.202
GAGACCGC | -0.222
CAGTCCTA | -0.0512
ACTGCCTG | -0.0891
GTAGTTCA | 0.186
CATGACAA | 0.0839
AGTCAGAG | -0.0374
CGAATAGA | 0.0543
AATCGATG | 0.104
CGGGCTCA | -0.279
GACGTACA | 0.0182
AAACAGGG | 0.119
CAACGGCC | -0.179
TCCAAAGA | -0.0575
CAGATGAA | -0.0148
GGTATGAC | 0.0159

Sequence | binding signal [E-score]
ACACTGGA | -0.152
AACCGGAA | -0.114
GATAAATC | 0.111
GCATATCA | 0.0784
ATATACGC | 0.239
ATGAACCG | -0.148
CCGTCCCC | -0.318
CAGCGCTG | -0.271
GCACACAA | -0.0985
AGGTGGGA | -0.0303
GCCGTAGA | 0.096
TCCTATAA | 0.184
AAGCAAGC | -0.165
CAGGACGG | -0.0793
GTATCTTA | 0.308
CGCACTTA | -0.0238
CAGAAGCG | -0.0659
GGCGGGCA | -0.232
AGGGCCAC | -0.302
CTATGAGC | -0.0781
CTGGGCCC | -0.249
CCAGTTAG | -0.0501
ATGTCTAG | 0.135
AAGCCGGG | -0.111
CCTAAACC | -0.301

Sequence | binding signal [E-score]
AAAAGCTG | 0.152
ATGAGAGA | -0.00452
CCGGTCAC | -0.178
ACTACAAA | 0.195
GTTAGACA | 0.0373
CTATCGTA | 0.357
GTGCTAAA | 0.107
CTACAACC | 0.097
CTAGAAGA | 0.138
CCGAACCC | -0.176
CACCACGC | -0.284
AGGCACAA | -0.0341
ACTGGGCT | -0.135
AATCCCAC | -0.164
CTTCACTA | 0.1
AAGCTACG | 0.0766
GCCTGCAC | -0.223
AACGGGAG | -0.133
CAACGTGC | 0.00038
TTATTAAA | 0.156
GTGTACTA | 0.16
ACATACAG | 0.139
ACGGAAGG | -0.162
CGCATTTC | -0.0947
CATAGCGC | -0.0698

Sequence | binding signal [E-score]
ATTCAGCG | 0.084
GGAACCCC | -0.194
CCAAAACA | 0.0286
AGGATTCC | -0.206
TAGAGTCA | -0.0813
AGCGTATC | -0.051
GAGACTAA | -0.0529
GAATTGTC | -0.118
CCCTATTC | -0.188
CAATTTGA | -0.0536
GCACATGA | -0.0422
CAAGAACA | -0.000347
ATCGGACC | -0.111
ATGCCTAG | 0.013
AACGTTCG | 0.00179
GTAGCCAC | -0.0767
ACACCTAT | 0.194
AGTCGTGG | -0.138
GCTACCAA | 0.237
AAACACAC | 0.217
ATCTGGGG | -0.124
ACTCGAGG | -0.0552
CGGCCACG | -0.323
AGATGCTG | 0.0356
TCCGGCCA | -0.226

Sequence | binding signal [E-score]
CGTCGTAC | -0.0353
AGGGAAAA | 0.0795
TGAAAAAA | 0.138
GAAGCATA | -0.0969
CAATTTGC | -0.0552
GAGTTTGC | 0.136
CCCTGAAC | -0.348
CCCGCACG | -0.269
TACATGGA | 0.19
CCGGTGAA | -0.243
ACCGCTCG | -0.0635
ACAGCCGT | -0.0887
AAATATTT | 0.258
ACTCCGTA | 0.0806
CCCACGCC | -0.245
ATTGCGTC | -0.121
AATATTCA | 0.184
CGTTTACA | -0.175
AGGTGTCA | -0.135
CCATCAGA | -0.0159
GATGTTCA | -3.34e-05
GCCTTCAA | -0.179
GTCTATGA | -0.0759
AATCGTTA | 0.0533
AGGTACGG | -0.0216

Sequence | binding signal [E-score]
AATTAGCT | 0.265
ATTGTGCC | 0.109
AAATGCCT | -0.046
AAGACAGG | -0.0648
GTAGTCTA | 0.198
ATTACACG | 0.0847
GCGCCCGC | -0.329
CACACGAG | 0.0493
ACTAGGCA | 0.154
TGTCGAAA | 0.129
AGCCTATA | 0.119
ATGTTGAC | -0.0509
ATAATACA | 0.242
AATATATT | 0.417
CTTGCCCA | -0.13
ACGAGAAG | -0.21
AATTCATC | 0.0705
GCCCTAAA | -0.14
TCGTATAA | 0.215
AGTTGCAT | 0.0854
AGCTAGTC | 0.104
ATCGGGGA | -0.154
CGCAGAAC | -0.171
CTCGTTCC | -0.14
AGAATCAG | 0.233

Sequence | binding signal [E-score]
GGTAGGAA | 0.247
ACAAAGTC | -0.118
GTAGTGTA | 0.118
TAATAGAA | 0.235
ACGGTGCT | -0.195
GCTGCTGA | -0.137
GCGATATA | 0.282
CGGGCGAC | -0.28
CTGCATAA | 0.156
ATTTGTGA | 0.193
CACACGCG | -0.136
AGCGTTCA | -0.219
GCAACTTA | 0.245
ATTACATA | 0.224
AATCTACG | 0.36
GCAAGAGA | -0.0837
ATACAGGC | -0.00913
CCTAACAG | -0.0844
CGGTGGCA | -0.127
CAAAAGGG | -0.177
AGCATAGG | 0.182
GACGTTGC | -0.152
AACGAGCA | -0.0844
CCTGATCA | 0.0241
GTATGTAA | 0.152

Sequence | binding signal [E-score]
AACAAAAG | 0.0892
CAATTAGC | 0.0885
TCGGGACA | -0.133
AACCCTCA | -0.0708
CAGCGGAA | 0.0978
GACGGACC | -0.182
ATCATTGA | 0.113
ACATTCAT | 0.00809
TCATTAAA | 0.0521
AGGGGTTG | -0.353
GCTCATAC | -0.0411
CGATTGTC | -0.15
CCGCACGA | -0.147
CATATTGG | -0.084
ATTCCGCG | 0.14
AAGTATCT | 0.297
TGCTAGAA | 0.364
GTAGCCGA | 0.0637
GGACACCC | -0.231
CTACAGAA | 0.189
AATTATTG | 0.204
GTATGTCA | 0.0225
AGTCCGCA | 0.0287
ATAAGATC | 0.248
CGCTAAAA | 0.0839

Sequence | binding signal [E-score]
AACTTCCC | 0.00325
ACCACAAG | -0.0254
AGTAGTTG | 0.393
ATCCCTTA | 0.0454
CTCGCCGA | -0.262
ACCAATTA | 0.0161
CTATATAC | 0.376
AACTTTGT | -0.00531
CACATGAA | 0.141
GCGCTACA | 0.142
CATACTCG | -0.0996
CACGACCC | -0.0829
ACTGGGTG | -0.153
GGCTGGAC | -0.111
CGAGATCA | -0.0124
AGCAGAGC | -0.0621
AACTCCTA | 0.175
GGACAAAC | 0.0466
AATTCGAA | 0.202
CAGCCCAG | -0.136
GAAAAGCC | 0.0409
AAACATAC | 0.297
CATGAATG | -0.00652
ACATAGCA | 0.0734
ATACTAAT | 0.321

Sequence | binding signal [E-score]
GAGCTCGC | -0.123
AACACCCC | -0.153
CGAACACA | -0.142
GTGGGTGA | 0.0534
CGATAGCG | -0.126
ATCACCTC | -0.12
AAGCTAGC | 0.254
CCCGGGGA | -0.298
ATCCCCCG | -0.0706
GCCGAACC | -0.0657
CAAAATTG | 0.185
CGACCAAG | 0.0163
AAATCCGA | -0.0171
GCTGCAAC | -0.13
ATCACGGA | -0.157
ACCGGGGC | -0.341
ATGCCAGG | -0.0548
ACCTCCAG | -0.197
ATTGTCCA | -0.0322
GTTTAAGA | 0.0894
GCTCTCCA | -0.345
CTTCGGTA | 0.0404
ATTCAATG | -0.0215
ATGCAATA | -0.0814
GTAGCAAA | 0.203

Sequence | binding signal [E-score]
AGTGCCTA | -0.0378
AGTCAATC | 0.0132
AGATAACT | 0.203
ATCACATC | 0.00892
TCTTAACA | 0.114
CAAAGGGG | -0.16
TAAAAGTA | 0.273
AACAGGTT | -0.172
AAGAGGCT | -0.168
AAATAGAC | 0.0478
ATTAGGGA | -0.124
TATCGCAA | 0.201
TCTATCCA | -0.00965
GGGCCTTA | -0.245
ACACCCAC | 0.0639
CCACGAGG | -0.336
ACACTAGT | 0.257
ACTTCCAG | 0.12
CCTAGCGA | -0.101
AGTAATAT | 0.386
ATATAGAC | -0.00572
AGATTGCT | -0.0857
GTATCCAC | -0.0162
CTTGGATA | 0.0487
AACTCGCT | 0.0469

Sequence | binding signal [E-score]
GTTGAACA | -0.213
AAGCCAAA | -0.175
CGCTCTAA | 0.0938
GGGCACAC | -0.201
GCCGTCTA | 0.0106
CAGCTCAG | -0.102
ACCCTAGT | 0.0947
TATTCTAA | 0.266
ATACCGAA | 0.132
CGCGATTA | 0.0183
CGGTATAG | 0.074
GAGGATCA | -0.113
CAGTAAGG | -0.136
ACCCGCCG | -0.167
CATGCAGG | 0.06
AAGTTTTA | 0.28
ATAATACG | 0.344
CATGCTTC | -0.0737
CGTCCCCC | -0.266

From publication PMC6212790
